Results from PubChem BioAssay AID651820 (National Center for Advancing Translational Sciences (NCATS), 2012).
About 12,000 (3.5%) of roughly 340,000 compounds were called active. The inconclusive results got no clear call from the source; some entries with a clear call stand among them for comparison. The call rests on the fitted dose curve; in most records, active means well fitted inhibition curve with a large enough effect; inconclusive means small, poorly fitted or top-dose-only effect, or another doubt; inactive means no such curve, though single readings can be large or run the other way. No potency is given beside an inconclusive call; the fits are too rough.

Assay: qHTS Assay for Inhibitors of Hepatitis C Virus (HCV)
Conditions: Huh7.5.1 HCVcc-Cre (HCVcc is cell-culture hepatitis C virus) infection, luciferase reporter, 44 h; series mostly up to 41.8 µM
Outline: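 A cell-based infection assay in which seeded cells (1,000 per well) receive test compound after 4 h, are inoculated with HCVcc-Cre at approximately 0.5 moi, and are incubated 44 h before luminescence detection.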
Potency means the concentration at half of the fitted maximal effect; tags describe the fitted curve by direction and shape.

Structure (SMILES) | Potency
Cc1ccc(C)c(S(=O)(=O)NCc2ccncc2)c1 | inconclusive [inhibitor, full curve, poor fit]
O=C(CCNS(=O)(=O)c1ccc2[nH]c(=O)oc2c1)NCc1ccccc1 | inactive
O=C(Nc1ccc(S(=O)(=O)NCC2CCCO2)cc1)c1cccc(F)c1 (configuration not stated) | inconclusive [inhibitor, single point]
COc1ccc(/C(N)=N/OC(=O)CN(C)S(=O)(=O)c2ccc(C)cc2)cc1 | inconclusive [inhibitor, single point]
COc1ccc(C(=O)N/N=C/C(Br)=C/c2ccccc2)cc1 | inconclusive [inhibitor, single point]
Cc1ccccc1CSCCNC(=O)c1ccc(N(C)S(=O)(=O)c2ccccc2)cc1 | active: 10 µM
COc1ccc(CC(=O)Nc2cccc(C(C)=O)c2)cc1S(=O)(=O)N1CCOCC1 | inactive
CCOc1ccccc1Oc1cn[nH]c1-c1ccc(O)cc1O | inconclusive [inhibitor, single point]
CCOC(=O)c1ccc(S(=O)(=O)NC2CCC(C)CC2)cc1 (configuration not stated) | inconclusive [inhibitor, single point]
CC(=O)Nc1ccc(S(=O)(=O)Nc2cccc(-c3nc4cc(C)ccc4o3)c2)cc1 | inconclusive [inhibitor, single point]
O=C(Cc1csc(NC(=O)Nc2ccc(Cl)cc2)n1)NCc1ccccn1 | inconclusive [inhibitor, partial curve]
CC1CCCC(NS(=O)(=O)c2cc(Br)cnc2N)C1C (configuration not stated) | inconclusive [inhibitor, single point]
COc1ccc(C(=O)COC(=O)c2cc(S(=O)(=O)N3CCCCC3)ccc2N2CCOCC2)c(OC)c1 | inconclusive [inhibitor, full curve, poor fit]
Cc1ccccc1NC(=O)CSC(=O)c1ccccc1 | inconclusive [inhibitor, partial curve]
CCc1ccc2c(c1)C1(SC(NC(C)=O)=NN1C(C)=O)C(=O)N2CC (configuration not stated) | inactive
CC(Sc1ncnc2sc(-c3ccccc3)cc12)C(N)=O (configuration not stated) | inconclusive [inhibitor, single point]
O=C(CN1CCN(c2ccccc2O)CC1)Nc1ccccc1C(=O)NCCc1ccccc1 | inconclusive [inhibitor, single point]
Cn1c(-c2ccc(F)cc2)cnc1NCc1cccc(F)c1 | inconclusive [inhibitor, single point]
Cc1ccc(S(=O)(=O)c2c(N)n(/N=C/c3ccco3)c3nc4ccccc4nc23)cc1 | inconclusive [inhibitor, full curve]
COc1ccc2c(c1)c(C(C)=O)c(C)n2-c1ccccc1 | inconclusive [inhibitor, full curve]
COc1ccccc1CN1CCCC(C(=O)c2ccccc2OC)C1 (configuration not stated) | inconclusive [inhibitor, single point]

Structure (SMILES) | Potency
COc1ccc2cc3cc(C(=O)NCCC(C)C)oc3nc2c1 | inconclusive [inhibitor, single point]
COc1ccc(NC(=O)CSc2c3c(nc4ccccc24)CCCC3)c(OC)c1 | inactive
Cc1nc(-c2ccc(S(=O)(=O)N3CCN(C4c5ccccc5-c5ccccc54)CC3)s2)cs1 | inactive
CCOc1ccc(OCC)c(NC(=O)CN(c2ccc(C)cc2)S(=O)(=O)c2c(C)noc2C)c1 | inconclusive [inhibitor, single point]
CCCCn1nc(C(=O)Nc2ccc3c(c2)OCO3)c2ccccc2c1=O | inconclusive [inhibitor, partial curve]
N#C/C(=C/c1ccc(N2CCOCC2)o1)c1ccc(Br)cc1 | inconclusive [inhibitor, single point]
Cc1ccc(Oc2ccc(Oc3ccc(C)cc3)nn2)cc1 | inactive
CC(C)(C)NC(=O)NC(=O)CN1CCN(c2cccc(Cl)c2)CC1 | inactive
Cn1c(=O)c2c(nc(SCC(=O)Nc3ccccc3N3CCCCC3)n2C)n(C)c1=O | inconclusive [inhibitor, single point]
O=C(N[C@H]1C/C=C\C[C@@H](CC(=O)N(CCO)Cc2ccccc2)C(=O)N2CCC[C@H]2COC1=O)OCC1c2ccccc2-c2ccccc21 | inconclusive [inhibitor, full curve]
CCC(=O)Nc1nc(-c2ccc3c(c2)OCCO3)cs1 | inconclusive [inhibitor, full curve]
O=C(NC1C(=O)NNC1c1ccc(Cl)cc1)c1ccc(F)cc1 (configuration not stated) | inactive
CSc1nnc(-c2sc3cc(C(F)(F)F)cnc3c2-c2ccccc2)n1C | inconclusive [inhibitor, partial curve]
Cc1ccc(-c2nc(CS(=O)CC(=O)N3CCN(c4ccccc4)CC3)c(C)o2)cc1 (configuration not stated) | inconclusive [inhibitor, single point]
C=CC[C@H](CC(=O)NCCO)C(=O)N[C@@H](COC(=O)[C@H](CC=C)CC(=O)OC(C)(C)C)Cc1ccccc1 | inconclusive [inhibitor, single point]
Cc1ccc(S(=O)(=O)NN2C(=O)/C(=C\c3ccc(Cl)cc3)SC2=S)cc1 | inactive
O=C(c1ccc(S(=O)(=O)NCc2ccco2)cc1)N1CCN(Cc2ccc3c(c2)OCO3)CC1 | inconclusive [inhibitor, partial curve]
CCOC(=O)N1CCN(C(=O)c2oc3ccc(S(=O)(=O)N4CCCCCC4)cc3c2C)CC1 | inconclusive [inhibitor, partial curve]
Cc1ccc(CN(CC2CCCO2)C(=O)CN2C(=O)C(C(C)C)Oc3ccccc32)o1 (configuration not stated) | inactive
CC[C@H](OC(C)=O)C(C[C@H](C)N(C)C)(c1ccccc1)c1ccccc1 | inconclusive [inhibitor, partial curve]
CC(=O)Nc1ccc(S(=O)(=O)NCCc2ccccc2)cc1 | inconclusive [inhibitor, single point]
